± gives the uncertainty stated by the source. The full ranking holds about 9,900 compounds; the median of “viability index relative to DMSO control” is about 1, and the lowest 2% start at about 0.85. Some of the results follow.

The assay has as its system Plasmodium falciparum NF54 stage V gametocytes. Kind of assay: viability index relative to DMSO control (fraction); higher = less gametocyte killing. The conditions noted are these: 2.5 µM, incubation time: 72 h. The gist of the method:
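Gametocytes (P. falciparum NF54, stage V) were treated with compound at 2.5 µM for 72 hr at 37°C in low oxygen, in serum-free medium at 0.75% gametocytemia and 1.25% hematocrit. Counts of 20–70 µm2 red particles, taken from one field per well after MitoTracker Red CMXRos with saponin, were divided by the plate mean of solvent-only wells. This ratio is the viability index.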

[1] abbreviates: library set: Broad Institute DOS.

Turning to `O=C(c1ccccc1)N1CC(=O)N2[C@@H](CO)[C@H](c3ccc(-c4ccccc4)cc3)[C@@H]2C1`, under setting [1], the viability index stood at 1.02 ± 0.037. The same measure, in the same setting: the figure for `Cc1noc(C)c1NC(=O)N(C)C[C@@H]1OCc2cn(nn2)CCCC(=O)N([C@@H](C)CO)C[C@H]1C` is 1.01 ± 0.047.

As for `Cc1ccccc1S(=O)(=O)N1CCCCN2[C@H](C1)[C@H](c1ccc(C#CCN(C)C)cc1)[C@@H]2CO`, the viability index under setting [1] was 1.078 ± 0.0075. Same read-out and setting: the figure for `O=C(CC1CC1)N1CC2(C1)[C@@H](c1ccccc1)[C@@H](CO)N2C(=O)c1ccccn1` is 1.11 ± 0.03; for `COc1cccc(CNC(=O)C[C@@H]2CC[C@H]3[C@@H](COc4ccc(NC(=O)c5cccs5)cc4C(=O)N3C)O2)c1` it is 1.075 ± 0.0063; for `C[C@@H]1CN([C@@H](C)CO)C(=O)c2ccccc2-c2ccccc2CO[C@H]1CN(C)C(=O)Nc1cccc(C(F)(F)F)c1` it is 0.993 ± 0.038. For `CO[C@@H](CN(C)Cc1ccc2c(c1)OCO2)[C@H](C)CN(C(=O)Nc1ccc(F)cc1)[C@H](C)CO`, the viability index under setting [1] was 1.04 ± 0.037.

Regarding `O=C(C[C@H]1CC[C@@H]2[C@H](COC[C@H](O)CN2C(=O)c2cnccn2)O1)NCc1ccc(Cl)cc1`, the viability index under setting [1] is 1.04 ± 0.056. With `COCC#Cc1ccc([C@@H]2[C@@H](CO)N3CCCCN(Cc4cccnc4)C[C@H]23)cc1`, the viability index under setting [1] came out at 0.989 ± 0.055.

`COc1ccc(S(=O)(=O)N2C[C@H](O)COC[C@H]3O[C@H](CC(=O)N[C@@H]4CCN(Cc5ccccc5)C4)CC[C@@H]32)cc1` yielded a viability index under setting [1] of 1.06 ± 0.12. Still for that read-out and setting: the figure for `C[C@H]1CN([C@@H](C)CO)C(=O)c2ccccc2-c2ccccc2CO[C@@H]1CN(C)C(=O)NC1CCCCC1` is 0.985 ± 0.073. The same measure, in the same setting: then `CO[C@@H](CN(C)S(=O)(=O)c1cn(C)cn1)[C@@H](C)CN(C(=O)Nc1ccc(C(F)(F)F)cc1)[C@@H](C)CO`, with 1.04 ± 0.094. Still for that read-out and setting: then `CCCN1C[C@@H](C)[C@H](OC)CN(C)C(=O)c2cc(NC(=O)Nc3cccc(F)c3)ccc2OC[C@@H]1C`, with 1.05 ± 0.053. For `O=C(C[C@H]1CC[C@@H]2[C@H](COC[C@@H](O)CN2Cc2nccs2)O1)N1CCC(Cc2ccccc2)CC1`, the viability index under setting [1] is 1.05 ± 0.015. The same measure, in the same setting: then `CC(C)NC(=O)N(C)C[C@@H]1Oc2ccc(NC(=O)c3ccncc3)cc2C(=O)N([C@@H](C)CO)C[C@@H]1C`, with 0.997 ± 0.14; and `C[C@H](CO)N1C[C@H](C)[C@@H](CN(C)S(C)(=O)=O)Oc2cc(-c3ccncc3)ccc2S1(=O)=O`, with 1.15 ± 0.067. Consider `CO[C@H](C(=O)N(C)C[C@@H]1OCc2ccccc2-c2ccccc2C(=O)N([C@@H](C)CO)C[C@@H]1C)c1ccccc1`, for which, under setting [1], the viability index is 1.03 ± 0.082. The same measure, in the same setting: the figure for `CCNC(=O)c1cc2c(c(-c3cccc(Br)c3)n1)[C@H](CCO)NC2` is 0.992 ± 0.12; for `C[C@@H]1CN([C@H](C)CO)C(=O)CCCn2cc(nn2)CO[C@H]1CN(C)S(=O)(=O)c1cccc(C#N)c1` it is 1.06 ± 0.062. The same measure, in the same setting: then `CCS(=O)(=O)Nc1ccc2c(c1)C(=O)N(C)[C@@H]1CC[C@@H](CC(=O)NCc3ccccc3F)O[C@@H]1CO2`, with 1.14 ± 0.16; and `C/C=C/c1ccc([C@H]2[C@@H]3CN(Cc4cccc(OC)c4)C[C@H]2N3)cc1`, with 0.95 ± 0.064.

As for `C/C=C/c1ccc([C@H]2[C@@H](CO)N(CC3CCCCC3)[C@@H]2CNC(C)C)cc1`, under “library set: Broad Institute Blood Stage”, the viability index came to 0.565 ± 0.068. `O=C(C[C@H]1CC[C@H]2[C@@H](COC[C@@H](O)CN2C(=O)c2cnccn2)O1)NCc1ccc(Cl)cc1` returned a viability index under setting [1] of 1.02 ± 0.023. On the same count and under the same terms, the figure for `Cc1ccc(S(=O)(=O)N(C)C[C@H]2OCCCC[C@@H](C)Oc3ccc(NC(=O)c4ccncc4)cc3C(=O)N([C@H](C)CO)C[C@@H]2C)cc1` is 1.023 ± 0.0052; for `C[C@@H]1CCCCO[C@@H](CN(C)C(=O)Nc2ccc3c(c2)OCO3)[C@H](C)CN([C@@H](C)CO)C(=O)c2cc(NS(=O)(=O)c3ccc(F)cc3)ccc2O1` it is 1.05 ± 0.031; for `Cc1noc(C)c1S(=O)(=O)N(C)C[C@@H]1OCc2ccccc2-c2ccccc2C(=O)N([C@H](C)CO)C[C@H]1C` it is 1.06 ± 0.051. The same measure, in the same setting: the figure for `CCCNC(=O)N1[C@@H](C#N)[C@H](c2ccccc2-c2ccccc2F)[C@@H]1CO` is 0.959 ± 0.02; for `CC(C)CC#Cc1ccc([C@H]2[C@H]3CN(C(=O)c4cccc(F)c4)CC(=O)N3[C@H]2CO)cc1` it is 0.9541 ± 0.0077; for `C[C@@H]1CN([C@@H](C)CO)C(=O)c2ccccc2-c2ccccc2CO[C@@H]1CN(C)C(=O)Nc1cccc(C(F)(F)F)c1` it is 1.03 ± 0.12.

Molecule `COc1ccccc1S(=O)(=O)N[C@H]1C=C[C@@H](CC(=O)N2CCOCC2)O[C@H]1CO` displayed a viability index under setting [1] of 1.09 ± 0.12. Still for that read-out and setting: then `COc1ccc(-c2cn(CC[C@@H]3CC[C@H](NC(=O)c4cnccn4)[C@@H](CO)O3)nn2)cc1`, with 1.16 ± 0.058. The molecule `C/C=C/c1ccc([C@@H]2[C@@H](CO)N(C(=O)c3cnccn3)C23CN(C(=O)C2CCC2)C3)cc1` yielded a viability index under setting [1] of 1.03 ± 0.013. The same measure, in the same setting: the figure for `N#Cc1cccc(-c2ccc3c(c2)[C@@H]2[C@@H](CCN2S(=O)(=O)c2ccc(F)cc2)[C@@H](CO)N3)c1` is 0.855 ± 0.011. In turn, `O=C(C[C@H]1C=C[C@@H](NC(=O)Nc2cccc(F)c2)[C@H](CO)O1)NCC1CCCCC1` came in with a viability index under setting [1] of 0.942 ± 0.015. Same read-out and setting: then `C[C@@H]1CN([C@@H](C)CO)S(=O)(=O)c2ccc(-c3cccc(C#N)c3)cc2O[C@H]1CN(C)C(=O)c1ccccc1`, with 0.967 ± 0.038.

(Values after the supplement of paper PMC4723716.)
